From the supplement of paper PMC4967469
IC50 is the fitted dose that halves viability relative to control wells, and lower means more sensitive; where the fit passes the top or lowest dose, that dose stands as a limit. AUC is the area under the same curve over the 256-fold range up to the top dose, as a fraction: 1 means no effect, lower means more sensitive. For part of these data: Any top dose called inferred comes from the curve model; the source does not state it. For part of these data: An entry number marks a drug with two screens in the source, which often give different values.

Tests used:
Assay in all cases: Viability of human cancer cell lines after 72 h of drug (GDSC screen)
[1] = compound: O=C(NC1CC1)c1cccc(-c2ccc3c(NC(=O)C4CC4)n[nH]c3c2)c1 [XMD13-2]; conditions: top dose 10.24 µM; top dose inferred
Experimental: (§1)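 Human cancer cell lines in 384-well plates, medium with 10% serum, drug for 72 h over a 256-fold dose range (nine 2-fold or five 4-fold steps up to the top dose). Adherent lines were fixed and stained with the nucleic acid dye Syto60, suspension lines read with resazurin; signal relative to control wells, capped at 0 and 100%. One two-parameter sigmoid per drug and line, fitted in a mixed model over all curves with the slope shared within a line.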

[2] = compound: CC[C@]1(O)C[C@@H]2CN(CCc3c([nH]c4ccccc34)[C@@](C(=O)OC)(c3cc4c(cc3OC)N(C)[C@H]3[C@@](O)(C(=O)OC)[C@H](OC(C)=O)[C@]5(CC)C=CCN6CC[C@]43[C@@H]65)C2)C1 [Vinblastine]; conditions: top dose 0.1 µM; top dose inferred
Experimental: as §1

[3] = compound: CN(c1ncccc1CNc1nc(Nc2ccc3c(c2)CC(=O)N3)ncc1C(F)(F)F)S(C)(=O)=O [PF-562271]; conditions: top dose 2.56 µM; top dose inferred
Experimental: as §1

[4] = compound: CC1(C)CC(=O)c2c(C(F)(F)F)nn(-c3ccc(C(N)=O)c(N[C@H]4CC[C@H](O)CC4)c3)c2C1 [SNX-2112]; conditions: top dose 2.56 µM
Experimental: as §1

[5] = compound: CN(C)C/C=C/C(=O)Nc1cc2c(Nc3ccc(F)c(Cl)c3)ncnc2cc1O[C@H]1CCOC1 [Afatinib]
Experimental: as §1

[6] = top dose 0.5 µM, screen: GDSC drug entry 1032
[7] = top dose 10 µM, screen: GDSC drug entry 1377, top dose inferred

| Cell Line | AUC [1] | IC50 [1] [µM] | AUC [2] | IC50 [2] [µM] | AUC [3] | IC50 [3] [µM] | AUC [4] | IC50 [4] [µM] | AUC [5, 6] | IC50 [5, 6] [µM] | AUC [5, 7] | IC50 [5, 7] [µM] |
| --- | --- | --- | --- | --- | --- | --- | --- | --- | --- | --- | --- | --- |
| BHT-101 (thyroid, adherent) | 0.966 | > 10.2 | 0.756 | 0.0351 | 0.864 | 2.35 | 0.511 | 0.172 | 0.973 | > 0.5 | 0.983 | > 10 |
| BICR10 (head and neck, adherent) | 0.982 | > 10.2 | 0.437 | 0.0041 | 0.867 | > 2.56 | 0.739 | 0.869 | 0.979 | > 0.5 | 0.969 | > 10 |
| BICR22 (head and neck, adherent) | 0.968 | > 10.2 | 0.397 | 0.00311 | 0.92 | > 2.56 | 0.679 | 0.549 | 0.849 | 0.466 | 0.781 | 4.8 |
| BICR78 (head and neck, adherent) | 0.948 | > 10.2 | 0.47 | 0.00512 | 0.944 | > 2.56 | 0.858 | > 2.56 | 0.455 | 0.0231 | 0.711 | 2.73 |
| BL-41 (Burkitt lymphoma, suspension) | 0.555 | 0.873 | 0.207 | 0.00114 | 0.9 | 1.89 | 0.176 | 0.0239 | 0.994 | > 0.5 | 0.993 | > 10 |
| BV-173 (chronic myeloid leukaemia, suspension) | 0.596 | 1.13 | 0.131 | 0.000525 | 0.881 | 2.13 | 0.337 | 0.0599 | 0.973 | > 0.5 | 0.981 | > 10 |
| BxPC-3 (pancreas, adherent) | 0.956 | > 10.2 | 0.497 | 0.00612 | 0.856 | 2.47 | 0.383 | 0.073 | 0.976 | > 0.5 | 0.95 | > 10 |
| C2BBe1 (large intestine, adherent) | 0.975 | > 10.2 | 0.615 | 0.0136 | 0.94 | > 2.56 | 0.783 | 1.24 | 0.974 | > 0.5 | 0.854 | 9.67 |
| C3A (liver, adherent) | 0.988 | > 10.2 | 0.933 | > 0.1 | 0.922 | > 2.56 | 0.538 | 0.204 | 0.98 | > 0.5 | 0.987 | > 10 |
| C-4-I (cervix, adherent) | 0.959 | > 10.2 | 0.608 | 0.0127 | 0.89 | > 2.56 | 0.687 | 0.562 | 0.872 | > 0.5 | – | – |
| C-33-A (cervix, adherent) | 0.93 | > 10.2 | 0.522 | 0.00719 | 0.849 | 1.94 | 0.403 | 0.0864 | 0.81 | 0.264 | 0.591 | 1.11 |
| CA46 (Burkitt lymphoma, suspension) | 0.911 | > 10.2 | 0.787 | 0.0469 | 0.917 | > 2.56 | 0.324 | 0.0497 | 0.985 | > 0.5 | 0.954 | > 10 |
| CAKI-1 (kidney, adherent) | 0.943 | > 10.2 | 0.693 | 0.0287 | 0.816 | 2.46 | 0.827 | > 2.56 | 0.908 | > 0.5 | 0.713 | 3.44 |
| CAL-12T (non-small cell lung carcinoma, adherent) | 0.972 | > 10.2 | 0.769 | 0.0424 | 0.928 | > 2.56 | 0.568 | 0.25 | 0.91 | > 0.5 | 0.849 | 8.93 |
| CAL-27 (head and neck, adherent) | 0.81 | 5.53 | 0.34 | 0.00222 | 0.938 | > 2.56 | 0.445 | 0.113 | 0.547 | 0.0421 | 0.254 | 0.121 |
| CAL-29 (bladder, adherent) | 0.971 | > 10.2 | 0.431 | 0.00398 | 0.947 | > 2.56 | 0.511 | 0.172 | 0.877 | > 0.5 | 0.82 | 6.32 |
| CAL-33 (head and neck, adherent) | 0.819 | 5.83 | 0.358 | 0.00252 | 0.78 | 1.06 | 0.487 | 0.148 | 0.569 | 0.0483 | 0.609 | 1.24 |
| CAL-39 (cervix, adherent) | 0.955 | > 10.2 | 0.487 | 0.00575 | 0.86 | 2.29 | 0.779 | 1.09 | 0.701 | – | 0.775 | 4.12 |
| CAL-51 (breast, adherent) | 0.983 | > 10.2 | 0.579 | 0.00998 | 0.852 | 1.58 | 0.973 | > 2.56 | 0.985 | > 0.5 | 0.957 | > 10 |
| CAL-62 (thyroid, adherent) | 0.978 | > 10.2 | 0.43 | 0.00407 | 0.835 | 1.56 | 0.986 | > 2.56 | 0.988 | > 0.5 | 0.974 | > 10 |
